This is one part of the list. Repeats are few or missing, and single values can be far off.
Legend:
Assay in all cases: cell count relative to DMSO control; melanoma cells; higher = more viable cells
Conditions in all cases: library dose: low library concentration; 72 h
COLO792 = system: COLO792
COLO800 = system: COLO800
COLO829 = system: COLO829
G361 = system: G361
IPC-298 = system: IPC-298
IST-MEL1 = system: IST-MEL1
LB2518-MEL = system: LB2518-MEL
LOXIMVI = system: LOXIMVI
MEL-HO = system: MEL-HO
MZ2-MEL = system: MZ2-MEL
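Also: cell number obtained by counting DAPI-stained nuclei in high-throughput microscope images with image analysis software, screen run in 1,536-well plates.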

SMILES	cell count (COLO792) [%]	cell count (COLO800) [%]	cell count (COLO829) [%]	cell count (G361) [%]	cell count (IPC-298) [%]	cell count (IST-MEL1) [%]	cell count (LB2518-MEL) [%]	cell count (LOXIMVI) [%]	cell count (MEL-HO) [%]	cell count (MZ2-MEL) [%]
COc1cc2ncnc(Nc3ccc(Oc4ccccc4)cc3)c2cc1OC + CCCCCCCCCCCC1=C(O)C(=O)C=C(O)C1=O [Embelin] (first compound 2 µM, partner dose 1.2 µM)	105	89.6	117	98.4	92.8	91.5	137	118	104	94.6
COC(=O)c1sccc1S(=O)(=O)Nc1ccc(Nc2ccccc2)cc1OC + CC(C)CCN1c2nc(Nc3cc(F)c(O)c(F)c3)ncc2N(C)C(=O)C1C [BID1870] (first compound 1 µM, partner dose 0.2 µM)	93.9	89.4	104	84.5	89.5	99.4	101	116	102	92.1
N#Cc1c(O)c2c(-c3ccc(-c4ccccc4O)cc3)csc2[nH]c1=O + COc1ccc(COc2ccc(Cc3cnc(N)nc3N)cc2OC)cc1 [GW2580] (first compound 2 µM, partner dose 1 µM)	110	101	84	94.2	99.3	97.9	108	110	69.9	97.8
COc1ccc2c(c1)CCC1C2CCC2(C)C(NCCCCCCN3C(=O)C=CC3=O)CCC12 (stereo not given) + CC(C)CCN1c2nc(Nc3cc(F)c(O)c(F)c3)ncc2N(C)C(=O)C1C [BID1870] (first compound 0.4 µM, partner dose 0.2 µM)	93.1	121	67.4	85.6	93.6	109	86.5	216	94.1	93.9
COc1ccc2c(c1)CCC1C2CCC2(C)C(NCCCCCCN3C(=O)C=CC3=O)CCC12 (stereo not given) + COc1cc2ncnc(Nc3ccc(Oc4ccccc4)cc3)c2cc1OC [SrcI1] (first compound 0.4 µM, partner dose 2 µM)	86.8	123	86	103	93.9	87.5	115	70.8	103	94.1
COc1ccc(COc2ccc(Cc3cnc(N)nc3N)cc2OC)cc1 + COc1cc(N2CCC(N3CCN(C)CC3)CC2)ccc1Nc1ncc(Cl)c(Nc2ccccc2S(=O)(=O)C(C)C)n1 [NVP-TAE684] (first compound 1 µM, partner dose 0.08 µM)	102	127	93.6	89.7	94.7	96.8	100	96.5	96.8	101
COC(=O)c1sccc1S(=O)(=O)Nc1ccc(Nc2ccccc2)cc1OC + Cn1cc(/C=C2\C(=O)Nc3cccnc32)c2ccccc21 [GW441756] (first compound 1 µM, partner dose 0.4 µM)	94.1	64	91.3	101	102	107	112	123	91.5	91.2
COc1ccc(COc2ccc(Cc3cnc(N)nc3N)cc2OC)cc1 + COc1cc2ncnc(Nc3ccc(Oc4ccccc4)cc3)c2cc1OC [SrcI1] (first compound 1 µM, partner dose 2 µM)	91.3	101	94.9	101	94.8	101	116	112	85.5	93.1
N#Cc1c(O)c2c(-c3ccc(-c4ccccc4O)cc3)csc2[nH]c1=O + CC(C)CCN1c2nc(Nc3cc(F)c(O)c(F)c3)ncc2N(C)C(=O)C1C [BID1870] (first compound 2 µM, partner dose 0.2 µM)	91.1	107	100	107	96.4	99.2	86.7	113	91.1	92.8
CCN(CC)CCCCNc1ncc2cc(-c3cc(OC)cc(OC)c3)c(NC(=O)NC(C)(C)C)nc2n1 + Oc1nc(-c2ccc(C(F)(F)F)cc2)nc2c1CSCC2 [XAV939] (first compound 0.1 µM, partner dose 2 µM)	78.7	68	109	94.1	106	90	102	101	88.9	97.9
Oc1nc(-c2ccc(C(F)(F)F)cc2)nc2c1CSCC2 + CCCCCCCCCCCC1=C(O)C(=O)C=C(O)C1=O [Embelin] (first compound 2 µM, partner dose 1.2 µM)	89.2	88.6	93.9	91.8	109	101	106	104	92.6	98.9
CCN(CC)CCCCNc1ncc2cc(-c3cc(OC)cc(OC)c3)c(NC(=O)NC(C)(C)C)nc2n1 + CC(C)CCN1c2nc(Nc3cc(F)c(O)c(F)c3)ncc2N(C)C(=O)C1C [BID1870] (first compound 0.1 µM, partner dose 0.2 µM)	85.6	115	113	101	96.1	109	93.1	71.9	87.3	97.8
Oc1cc(-c2nc(-c3ccccc3)[nH]c2-c2ccncc2)ccc1Cl + CC(C)CCN1c2nc(Nc3cc(F)c(O)c(F)c3)ncc2N(C)C(=O)C1C [BID1870] (first compound 0.2 µM, partner dose 0.2 µM)	101	103	92.6	88.2	105	91.3	130	118	93.9	95.7
CCN(CC)CCCCNc1ncc2cc(-c3cc(OC)cc(OC)c3)c(NC(=O)NC(C)(C)C)nc2n1 + COc1cc2ncnc(Nc3ccc(Oc4ccccc4)cc3)c2cc1OC [SrcI1] (first compound 0.1 µM, partner dose 2 µM)	87.5	105	103	109	93.7	93.7	102	95.4	80.2	95.7
Cn1cc(/C=C2\C(=O)Nc3cccnc32)c2ccccc21 + CC(C)CCN1c2nc(Nc3cc(F)c(O)c(F)c3)ncc2N(C)C(=O)C1C [BID1870] (first compound 0.4 µM, partner dose 0.2 µM)	96.7	84.2	106	87.3	99	84	88.6	127	75.8	97.9
Oc1cc(-c2nc(-c3ccccc3)[nH]c2-c2ccncc2)ccc1Cl + O=c1cc(-c2cccc3c2Sc2ccccc2S3)oc(N2CCOCC2)c1 [KU55933] (first compound 0.2 µM, partner dose 1 µM)	107	93.6	107	86.3	90.5	101	108	137	109	82.2
COC(=O)c1sccc1S(=O)(=O)Nc1ccc(Nc2ccccc2)cc1OC + O=C1NC(=O)/C(=C/c2ccc(-c3ccc(F)cc3O)o2)S1 [AS252424] (first compound 1 µM, partner dose 1 µM)	93.1	146	105	99.9	102	101	92.5	118	79.5	94.7
Oc1nc(-c2ccc(C(F)(F)F)cc2)nc2c1CSCC2 + c1cc(-c2cnn3cc(-c4ccc(OCCN5CCCCC5)cc4)cnc23)ccn1 [Dorsomorphin] (first compound 2 µM, partner dose 0.4 µM)	82.1	104	105	90.3	96.2	95.2	89.4	135	97.2	101
O=C1NC(=O)/C(=C/c2ccc(-c3ccc(F)cc3O)o2)S1 + c1cc(-c2cnn3cc(-c4ccc(OCCN5CCCCC5)cc4)cnc23)ccn1 [Dorsomorphin] (first compound 1 µM, partner dose 0.4 µM)	95.8	136	118	112	95.7	107	96.8	102	106	101
COc1cc2ncnc(Nc3ccc(Oc4ccccc4)cc3)c2cc1OC + Cc1cc([N+](=O)[O-])ccc1NS(=O)(=O)c1cc(Cl)ccc1Cl [FH535] (first compound 2 µM, partner dose 1 µM)	69.8	102	97.4	82.7	81.5	86.6	118	108	101	86.7
O=C(O)C(=O)Nc1sc2c(c1C(=O)O)CCNC2 + Oc1nc(-c2ccc(C(F)(F)F)cc2)nc2c1CSCC2 [XAV939] (first compound 1.66667 µM, partner dose 2 µM)	80.3	147	102	91.2	92.2	105	95.3	97.3	74.5	97.2
COC(=O)c1sccc1S(=O)(=O)Nc1ccc(Nc2ccccc2)cc1OC + COc1cc(N2CCC(N3CCN(C)CC3)CC2)ccc1Nc1ncc(Cl)c(Nc2ccccc2S(=O)(=O)C(C)C)n1 [NVP-TAE684] (first compound 1 µM, partner dose 0.08 µM)	96.5	90.7	99.1	91.7	100	110	98.8	127	99.1	93.2
